Test results from the RNAGym collection of RNA variant scans (doi:10.1093/nar/gkz1192).
Read counts are not given, so values of variants with three or more changes are uncertain.

B1: CPEB3 Ribozyme (parent)
chain: UAACAGGGGGCCACAGCAGAAGCGUUCACGUCGCAGCCCCUGUCAGAUUCUGGUGAAUCUGCGAAUUCUGCUGUAUAUCUC

Variants of: B1
Experiment: self-cleavage, relative activity (ratio to wild type); higher = more cleavage; in vitro, sequencing
Outline: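 Relative activity compares each variant's cleaved/total read fraction with that of the unmutated ribozyme. To get these fractions, barcoded CPEB3 ribozyme libraries from rounds of error-prone PCR were transcribed with T7 RNA polymerase for 5 hours at 37°C and then given 15 min of DNase I treatment before EDTA was added. The RNAs were reverse transcribed with template switching and sequenced on Illumina, and DNA sequencing linked barcodes to variants. A minimum of 5 reads applied, and three batches were averaged.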

Row | Variant | self-cleavage
1 | UAGCAGGGGGCCACAGCAGAAGCGUCCACGUCGCAGCCCUUGUCAGACUCUGGUGAAUCUGCGAAUUCUGCUGUAUAUCUC [A3G U26C C40U U48C] | 0.11
2 | UAGCAGGGGGCCACAGCAGAAGCGUCCACGUCGCAGCCCCUAACAGAUUCUGGUGAAUCUGCGAAUUCUGCUGUAUAUCUC [A3G U26C G42A U43A] | 0.35
3 | UAGCAGGGGGCCACAGCAGAAGCGUCCACGUCGCAGCCCCUGUCAGAUUCUGGUGAAUGUACGAAUUCUGCUGUAUACCUC [A3G U26C C59G G61A U78C] | 0.15
4 | UAGCAGGGGGCCACAGCAGAAGCGUACACGUCGCAGCCCCAGUCAGAUUCUGGUGAAUCUGCGAAUUCUGCUGUAUAUCUC [A3G U26A U41A] | 0.49
5 | UAGCAGGGGGCCACAGCAGAAGCGUCCACGGCGCGGCCCCUGUCAGAUUCCGGUGAAUCUGCGAGUUCUGCUGUAUAUCUC [A3G U26C U31G A35G U51C A65G] | 0.24
6 | UAGCAGGGGGCCACAGCAGAAGCGUCCUCGUCGCAGCCCCUGUCAGAUUCUGGUGACUCUGCGAAUUCUGCUGUAUAUCUC [A3G U26C A28U A57C] | 0.17
7 | UAGCAGGGGGCCACAGCAGAAGCGUCCACGCCGCAGCCCCUGUCUGAUUCUGGUGAAUCCGCGAAUACAGCUGUAUAUCUC [A3G U26C U31C A45U U60C U67A U69A] | 0.09
8 | UAGCAGGGGGCCACAGCAGAAGCGUACACGUCGCAGCCCCUGUCAGCUUCUGGUGAAUCAGCGAAUUCUGCUGUAUAUCUC [A3G U26A A47C U60A] | 0.08
9 | UAGCAGGGGGCCACAGCAGAAGCGUCCUCGUCGCAGCCCCUGUCAGAUUCUGGUGAAUCUGCGAGUUCUGCUGUAUAUCUC [A3G U26C A28U A65G] | 0.28
10 | UAGCAGGGGGCCACAGCAGAAGCGUCCACGUCGCAGCCUCUGUCAGAUUCUGGUGAAUCUGCGAAUUCUGCUGCAUAUCCC [A3G U26C C39U U74C U80C] | 0.71
11 | UAGCAGGGGGCCACAGCAGAAGCGUACACAUCGCAGCCCCUGUCAGAUUCUGGUGAAUCUGCGAAUUCUGCUGUAUACCUC [A3G U26A G30A U78C] | 0.11
12 | UAGCAGGGGGCCACAGCAGAAGCGUACACGUCGCAGCCCCUGUCAGAUUCUGGUGAAUCUGCGAAUUCUGCUGUAUAACUC [A3G U26A U78A] | 0.96
13 | UAGCAGGGGGCCACAGCAGAAGCGUCCACGUCGCAGCCCCUGUCAGAUUCUGGUGAAUCUGGGAAUUCAGCUGUAUAUCUC [A3G U26C C62G U69A] | 0.2
14 | UAGCAGGGGGCCACAGCAGAAGCGUACACGUCGCAGCCCCUGUCAGAUUCUGGUGGACCUGCGAAUUCCGCUGUAUAUCUC [A3G U26A A56G U58C U69C] | 0.23
15 | UAGCAGGGGGCCACAGCAGAAGCGUCCACGUCGCAGCCCCUGUCAGAUUCUGGUGAGUCUGCGAAUUAGGCUGUAUAUCUC [A3G U26C A57G C68A U69G] | 0.19
16 | UAGCAGGGGGCCACAGCAGAAGCGUCCACGUCGCAGCCCCUGUCAGAAUCUGGUGAAUCUGCGAAUUCUGCUGUAUAUCUC [A3G U26C U48A] | 0.38
17 | UAGCAGGGGGCCACAGCAGAAGCGUCCACGUCGCAGCCCCUGUCAGAUUCUGGUGGAUCUGCGGAUUCUGCUGUGUAUCUC [A3G U26C A56G A64G A75G] | 0.23

Row | Variant | self-cleavage
18 | UAGCAGGGGGCCACAGCAGAAGCGUCCACAUCGCAGCCCCUGUCAGAUUCUGGUGAAUCUGCGAAUUCUGCUUUAUAUAUC [A3G U26C G30A G73U C79A] | 0.55
19 | UAGCAGGGGGCCACAGCAGAAGCGUCCACGUCGCAGCCCCCGUCAGACUCUGGUGUAUCUGCGAAUUCUGCUGUAUAUCUC [A3G U26C U41C U48C A56U] | 0.13
20 | UAGCAGGGGGCCACAGCAGAAGCGUACACGUCGCAGCCCCUAUCAGACUCUGGUGAAUCUGCGAAUUCUGCUGUAUAUCUC [A3G U26A G42A U48C] | 0.05
21 | UAGCAGGGGGCCACAGCAGAAGCGUCCAUGUCGCAGCCCCAGUCAGAUUCUGGUGAAUCUGCGAAUUCUGCUGUAAAUCUC [A3G U26C C29U U41A U76A] | 0.1
22 | UAGCAGGGGGCCACAGCAGAAGCGUCCACGCCGCAGCCCCUGUCAGAUUCUGGUGUAUCUGCGAAUUCUGCUGUAUAUCUC [A3G U26C U31C A56U] | 0.17
23 | UAGCAGGGGGCCACAGCAGAAGCGUCCGCGCCGCAGCCCCUGUCAGAUUCUGGUGAAUCUGCGAAUUCUGCUGUAUAUCUC [A3G U26C A28G U31C] | 0.03
24 | UAGCAGGGGGCCACAGCAGAAGCGUCCACGCCGCAGCCCCUGUCAGAUUCUGGUGAAUCUGUGGAUUUUGCUGUAUAUCUC [A3G U26C U31C C62U A64G C68U] | 0.11
25 | UAGCAGGGGGCCACAGCAGAAGCGUCCACGUCGCAACCCCUGUCAGAUUCUGGUGAAUCUGCGAAUUCUGCUGUAUAUCUC [A3G U26C G36A] | 0.29
26 | UAGCAGGGGGCCACAGCAGAAGCGUACACGUCGCAGCCCCUGUCAGAUUCUGGUGAAUCUGCGAUUUCUGCUGUAUAUCUC [A3G U26A A65U] | 0.49
27 | UAGCAGGGGGCCACAGCAGAAGCGUCCACGUCGCAGCCUCUGUCAGAUUCUGGUGAAUCUGCGAAUUCCGCUGUAUAUCUC [A3G U26C C39U U69C] | 0.13
28 | UAGCAGGGGGCCACAGCAGAAGCGUCCGCGUCGCAGCCCCUGUCGGAUUCUGGUGAAUCUGCGAAUUCUGCUGUAUAUCUU [A3G U26C A28G A45G C81U] | 0.19
29 | UAGCAGGGGGCCACAGCAGAAGCGUCCACGACGCAGCCCCUGUCGGAUUCUGGUGAAUCUGCGAAUUCUGCUGUAUAUCUC [A3G U26C U31A A45G] | 0.53
30 | UAGCAGGGGGCCACAGCAGAAGCGUCCACGUCGCAGCCCCAGUCAGAUUCUGGUGUAUCUGCGAAUUCUGCUGUAUAUCUC [A3G U26C U41A A56U] | 0.45
31 | UAGCAGGGGGCCACAGCAGAAGCGUCCACGACGCAGCCCCUGCCAGAUUCUGGUGAAUCAGCGAAUUCUGCUGUAUAUCUC [A3G U26C U31A U43C U60A] | 0.27
32 | UAGCAGGGGGCCACAGCAGAAGCGUCCAAGUCGCAGCCCCCGUCAGAUUCUGGUGAAUCUGCGAUUUCUGCUGUAUAUCUC [A3G U26C C29A U41C A65U] | 0.24
33 | UAGCAGGGGGCCACAGCAGAAGCGUACACGUCGCAGCCCCUGUCAGAUUCUGGUGAUUCUGCGAAUUCUGCUGUAUAUCUC [A3G U26A A57U] | 0.33
34 | UAGCAGGGGGCCACAGCAGAAGCGUCCGCGCAGCAGCCCCUGUCAGAUUCUGGCGAAUCCGCGAAUUCUGCUGUAUAUCUC [A3G U26C A28G U31C C32A U54C U60C] | 0.13
